According to patent US20220356221A1 (ASKGENE PHARMA, published 2022):

Target: human IL-12 receptor on HEK-Blue IL-12 reporter cells (human, UniProt P42701 24-662; Q99665 24-862)
Experiment: cell-based or functional assay

B1: IL-12 prodrug JR3.105.5 (prior to protease treatment) (Fc fusion)
chain 1: DKTHTCPPCPAPELLGGPSVFLFPPKPKDTLMISRTPEVTCVVVDVSHEDPEVKFNWYVDGVEVHNAKTKPREEQYASTYRVVSVLTVLHQDWLNGKEYKCKVSNKALPAPIEKTISKAKGQPREPQVYTLPPCRDELTKNQVSLWCLVKGFYPSDIAVEWESNGQPENNYKTTPPVLDSDGSFFLYSKLTVDKSRWQQGNVFSCSVMHEALHNHYTQKSLSLSPGAGGGGSGGGGSGGGGSIWELKKDVYVVELDWYPDAPGEMVVLTCDTPEEDGITWTLDQSSEVLGSGKTLTIQVKEFGDAGQYTCHKGGEVLSHSLLLLHKKEDGIWSTDILKDQKEPKNKTFLRCEAKNYSGRFTCWWLTTISTDLTFSVKSSRGSSDPQGVTCGAATLSAERVRGDNKEYEYSVECQEDSACPAAEESLPIEVMVDAVHKLKYENYTSSFFIRDIIKPDPPKNLQLKPLKNSRQVEVSWEYPDTWSTPHSYFSLTFCVQVQGKSKREKKDRVFTDKTSATVICRKNASISVRAQDRYYSSSWSEWASVPCSGGGGSGGGGSGGGGSRNLPVATPDPGMFPCLHHSQNLLRAVSNMLQKARQTLEFYPCTSEEIDHEDITKDKTSTVEACLPLELTKNESCLNSRETSFITNGSCLASRKTSFMMALCLSSIYEDLKMYQVEFKTMNAKLLMDPKRQIFLDQNMLAVIDELMQALNFNSETVPQKSSLEEPDFYKTKIKLCILLHAFRIRAVTIDRVMSYLNAS
chain 2: [sequence of human IgG1 Fc with changes not given]GGGGSGGGGSGPLGVRGGGGSDIQMTQSPSSLSASVGDRVTITCRASQGISSWLAWYQQKPEKAPKSLIYAASSLQSGVPSRFSGSGSGTDFTLTISSLQPEDFATYYCQQYNIYPYTFGQGTKLEIKGGGGSGGGGSGGGGSGGGGSEVQLVQSGAEVKKPGESLKISCKGSGYSFTTYWLGWVRQMPGKGLDWIGIMSPVDSDIRYSPSFQGQVTMSVDKSITTAYLQWNSLKASDTAMYYCARRRPGQGYFDFWGQGTLVTVSS
  EC50 in the cell-based IL-12 reporter assay (HEK-Blue IL-12, STAT4-inducible SEAP, OD630): ~0.9 nM
